{"source": "PubChem BioAssay AID588855", "about": "(National Center for Advancing Translational Sciences (NCATS), 2011)", "note": "The campaign covered roughly 410,000 compounds. About 5,000 (1.2%) were called active. This list was built around the results that the source calls inconclusive (neither active nor inactive); the mix of calls is not that of the screen. Calls follow the shape of the dose curve; as a rule, active = well fitted inhibition curve with a large enough effect; inconclusive = small, poorly fitted or top-dose-only effect; inactive = no such curve, though single readings can be large or run the other way. Potencies of inconclusive entries are doubtful fits and often do not repeat. % is scaled to controls: 0 for no effect and ±100 for the full control effect; potency is read from the fitted curve at half-maximal effect; tags tell the direction and shape of the fitted curve."}
{"test": "qHTS for Inhibitors of TGF-b; also: nearly all actives have a fitted effect of over 65% in size", "conditions": "HepG2 CAGA-GFP TGF-b/SMAD3 reporter, GFP fluorescence, 18 h, TGF-beta stimulated, 500 pg/mL final; series mostly up to 46.1 µM; activity, negative = inhibition: at the top concentration", "how_it_was_run": "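GFP signal (ex488/em500-530) from TGF-beta-stimulated HEPG2 CAGA-GFP cells, 500 pg/mL final, 18 h at 37 degrees C in DMEM plus 1% FBS, normalized to unstimulated and DMSO-stimulated controls.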"}
{"smiles": "O=C(NCc1ccco1)C1CC(c2ccc(C(F)(F)F)cc2)=NO1", "note": "(stereo not drawn)", "activity, negative = inhibition": "inactive: -0.0047%"}
{"smiles": "CCOc1cc(S(=O)(=O)NCc2ccc(OC)cc2)c(OCC)cc1-n1cnnn1", "activity, negative = inhibition": "inactive: -2.77%"}
{"smiles": "COc1ccc(CCNC(=O)CNS(=O)(=O)c2ccc(Cl)cc2)cc1", "Potency": "inconclusive: 0.562 µM [inhibitor, full curve]"}
{"smiles": "O=C(CSCc1ccc(Cl)cc1)N/N=C/c1ccccc1", "activity, negative = inhibition": "inactive: -10.5%"}
{"smiles": "C=C(C)c1cccc(C(C)(C)NC(=O)Nc2nncs2)c1", "activity, negative = inhibition": "inactive: -6.3%"}
{"smiles": "CC(C)CC(COCc1ccc(C(F)(F)F)cc1)N1CCN(C(=O)c2ccc(C(F)(F)F)cc2)CCC1=O", "note": "(stereo not drawn)", "Potency": "inconclusive: 35.5 µM [inhibitor, single point]"}
{"smiles": "Cc1cc2nc(/C=C/c3cccnc3)[nH]c2cc1C", "Potency": "inconclusive: 7.08 µM [inhibitor, partial curve, poor fit]"}
{"smiles": "O=C(CC(=O)c1ccccc1)Nc1ccc([N+](=O)[O-])cc1", "Potency": "inconclusive: 22.4 µM [inhibitor, single point]"}
{"smiles": "O=S(=O)(NCc1ccccc1)c1ccc(S(=O)(=O)N(Cc2ccccn2)C2CCCC2)cc1", "Potency": "inconclusive: 35.5 µM [inhibitor, single point]"}
{"smiles": "CC(=O)N1CCc2c(sc3c2c(=O)n(-c2ccccc2)c(=O)n3CC(=O)Nc2ccccc2)C1", "activity, negative = inhibition": "inactive: -3.58%"}
{"smiles": "N#CC1c2ccccc2C=CN1C(=O)N(c1ccccc1)c1ccccc1", "note": "(stereo not drawn)", "Potency": "active: 8.91 µM"}
{"smiles": "Cc1ccc(-c2nc3cnccn3c2Nc2ccc3c(c2)OCO3)o1", "activity, negative = inhibition": "inactive: -12.8%"}
{"smiles": "O=C(CSc1ncnc2[nH]ncc12)Nc1nc(-c2ccc(F)c(F)c2)cs1", "activity, negative = inhibition": "inactive: -18.5%"}
{"smiles": "COc1ccc(S(=O)(=O)N2CCCCCC2)cc1NC(=O)Cc1ccc(OC)c(OC)c1", "Potency": "inconclusive: 1.26 µM [inhibitor, partial curve, poor fit]"}
{"smiles": "CCc1c(C(=O)NC2CCCc3ccccc32)[nH]c(C)c1C(C)=O", "note": "(stereo not drawn)", "activity, negative = inhibition": "inactive: -14.2%"}
{"smiles": "O=C(NCc1ccc(Cl)c(Cl)c1)c1cc(C2CCCCN2C(=O)CCc2ccccc2)on1", "note": "(stereo not drawn)", "activity, negative = inhibition": "inactive: -23.9%"}
{"smiles": "C[C@@H]1CN([C@@H](C)CO)C(=O)Cc2cc(NS(=O)(=O)c3ccccc3)ccc2O[C@H]1CN(C)Cc1ccncc1", "Potency": "inconclusive: 5.62 µM [inhibitor, single point]"}
{"smiles": "CC(C)(C)NC(=O)c1cc([N+](=O)[O-])ccc1N1CCCCC1", "activity, negative = inhibition": "inactive: -0.547%"}
{"smiles": "O=C(C(=Cc1ccc(F)cc1)C(=O)c1ccccc1)c1ccccc1", "Potency": "active: 8.91 µM"}
{"smiles": "COc1ccc2c(c1)CC/C(=C/c1ccccn1)C2=O", "Potency": "inconclusive: 35.5 µM [inhibitor, single point]"}
{"smiles": "O=C(Nc1ccc(S(=O)(=O)NC2CCCCC2)cc1)c1ccc(Br)o1", "Potency": "inconclusive: 25.1 µM [inhibitor, single point]"}
{"smiles": "O=C(CSc1nnc(Cn2nnc3ccccc32)o1)N(Cc1ccc(F)cc1)c1ccccc1", "Potency": "active: 11.2 µM"}
{"smiles": "CN1CCN(c2ccc(CNS(=O)(=O)c3ccccc3)cc2)CC1", "activity, negative = inhibition": "inactive: -3.43%"}
{"smiles": "CCNc1nc(NCC)nc(-n2nc(C)cc2C)n1", "Potency": "inconclusive: 17.8 µM [inhibitor, single point]"}
{"smiles": "CCOC(=O)C1(Cc2ccc(OC)cc2)CCN(C(=O)c2cc3ccccc3[nH]2)CC1", "Potency": "inconclusive: 31.6 µM [inhibitor, single point]"}
{"smiles": "Cc1ccc(S(=O)(=O)N2CCC(=O)N(CCOC(=O)Nc3ccc(C)c(C)c3)CC2)cc1", "Potency": "inconclusive: 10 µM [inhibitor, partial curve, poor fit]"}
{"smiles": "Cc1cc(NCC(C)C)n2ncnc2n1", "Potency": "inconclusive: 3.98 µM [inhibitor, single point]"}
{"smiles": "CCC(C)N(C(=O)Cn1cnc2c1c(=O)n(C)c(=O)n2C)C1CCS(=O)(=O)C1", "note": "(stereo not drawn)", "Potency": "inconclusive: 15.8 µM [inhibitor, single point]"}
{"smiles": "CN(Cc1ccco1)C(=O)c1ccc2c(c1)N(Cc1ccccc1F)C(=O)c1ccccc1S2", "activity, negative = inhibition": "inactive: -26.2%"}
{"smiles": "CCc1ccc(CC)c(S(=O)(=O)Nc2ccc(O)c(C(=O)O)c2)c1", "activity, negative = inhibition": "inactive: -8.43%"}
{"smiles": "CCOC1=NN(c2ncc(C(F)(F)F)cc2Cl)C(=O)C1", "Potency": "inconclusive: 3.55 µM [inhibitor, single point]"}
{"smiles": "CCc1ccc2[nH]c(=O)c(CN(Cc3cccs3)Cc3nnnn3Cc3ccccc3)cc2c1", "Potency": "inconclusive: 22.4 µM [inhibitor, single point]"}
{"smiles": "Cc1c(NC(=S)NC(=O)c2sc3ccccc3c2Cl)cccc1C(=O)O", "Potency": "inconclusive: 0.316 µM [inhibitor, full curve, poor fit]"}
{"smiles": "CC(=O)Nc1nc2ccccc2n1Cc1ccccc1C", "Potency": "inconclusive: 25.1 µM [inhibitor, single point]"}
{"smiles": "COc1ccc(NC(=O)C2CCN(Cc3cnn(-c4ccccc4)c3-n3cccc3)CC2)cc1OC", "Potency": "inconclusive: 0.708 µM [inhibitor, partial curve, poor fit]"}
{"smiles": "CS/C(=N\\S(=O)(=O)c1cccs1)Nc1ccc(Cl)cc1", "Potency": "inconclusive: 35.5 µM [inhibitor, single point]"}
{"smiles": "COc1ccccc1-c1nnc(SCC(=O)Nc2ccccc2F)o1", "Potency": "inconclusive: 0.112 µM [inhibitor, full curve, poor fit]"}
{"smiles": "CCC1CN(C(=O)N2CCC(C(=O)N3CCN(c4cccc(C)c4C)CC3)CC2)c2ccccc2O1", "note": "(stereo not drawn)", "Potency": "inconclusive: 3.98 µM [inhibitor, full curve, poor fit]"}
{"smiles": "CC1(Oc2cccc(F)c2)CCN(Cc2ccc(-c3ccccc3)o2)C1", "note": "(stereo not drawn)", "Potency": "inconclusive: 3.98 µM [inhibitor, partial curve, poor fit]"}
{"smiles": "COCCCNC(=O)c1c[nH]c2ccc(S(=O)(=O)N3CCc4ccccc43)cc2c1=O", "Potency": "inconclusive: 12.6 µM [inhibitor, partial curve, poor fit]"}
{"smiles": "COc1ccc(/C=C/C(=O)c2ccc([N+](=O)[O-])o2)cc1", "Potency": "inconclusive: 5.01 µM [inhibitor, partial curve, poor fit]"}
{"smiles": "Cc1ccc(Cl)cc1NC(=O)CCC(=O)N1CC(C)Sc2ccccc21", "note": "(stereo not drawn)", "Potency": "inconclusive: 25.1 µM [inhibitor, single point]"}
{"smiles": "Cc1ccc(C(=O)Nc2cc(S(=O)(=O)N3CCOCC3)ccc2N2CCCC2)cc1", "Potency": "inconclusive: 28.2 µM [inhibitor, single point]"}
